Measurements: US20230159453A1 (COCRYSTAL PHARMA, INC., priority 2020, published 2023)

Molecular target: Noro protease (Norovirus, UniProt Q83883)
Assay: Norovirus protease inhibition assay (Noro-Norwalk FRET protease assay)
Conditions: IC50 (μM), peptide substrate 10 μM, 90 minutes at 37° C., compounds 200 μM to 10.2 nM

Compared with `CC(C)C[C@H](NC(=O)OC(c1ccccc1)C(C)(C)c1cccc(Cl)c1)C(=O)N[C@@H](C[C@@H]1CCNC1=O)C(=O)CO` (stereo partly drawn) [Compound C236, 2-(3-Chlorophenyl)-2-methyl-1-phenylpropyl ((S)-1-(((S)-4-hydroxy-3-oxo-1-((S)-2-oxopyrrolidin-3-yl)butan-2-yl)amino)-4-methyl-1-oxopentan-2-yl)carbamate], `CC(C)C[C@H](NC(=O)OC(c1ccccc1)C(F)(F)c1cccc(Cl)c1)C(=O)N[C@@H](C[C@@H]1CCNC1=O)C(=O)CO` (stereo partly shown) [Compound C279] is higher in IC50: 185 µM for the first, > 200 µM for the second.

Going from `CC(C)C[C@H](NC(=O)OC(Cc1ccccc1)C1CCCCC1)C(=O)N[C@H](C=O)C[C@@H]1CCNC1=O` (stereo partly drawn) [Compound C237, 1-Cyclohexyl-2-phenylethyl ((S)-4-methyl-1-oxo-1-(((S)-1-oxo-3-((S)-2-oxopyrrolidin-3-yl)propan-2-yl)amino)pentan-2-yl)carbamate] to `CC(C)C[C@H](NC(=O)OC(CCc1ccccc1)c1ccccc1)C(=O)N[C@H](C=O)C[C@@H]1CCNC1=O` (stereo partly shown) [Compound C259], the IC50 falls from 8.6 µM to 4.4 µM (2-fold).

Going from `CC(C)C[C@H](NC(=O)OC(c1ccc(F)cc1)C(C)(C)c1cccc(Cl)c1)C(=O)N[C@H](C=O)C[C@@H]1CCNC1=O` (stereo partly drawn) [Compound C238, 2-(3-chlorophenyl)-1-(4-fluorophenyl)-2-methylpropyl ((S)-4-methyl-1-oxo-1-(((S)-1-oxo-3-((S)-2-oxopyrrolidin-3-yl)propan-2-yl)amino)pentan-2-yl)carbamate] to `CC(C)C[C@H](NC(=O)OC(c1ccc(Cl)cc1)C(C)(C)c1cccc(Cl)c1)C(=O)N[C@H](C=O)C[C@@H]1CCNC1=O` (stereo partly shown) [Compound C246], the IC50 rises from 1.6 µM to 52.1 µM (33-fold).

`CC(C)C[C@H](NC(=O)OC1CCCC1Cc1ccccc1)C(=O)N[C@@H](C[C@@H]1CCNC1=O)C(=O)C(N)=O` (stereo partly drawn) [Compound C240, 2-Benzylcyclopentyl ((S)-1-(((S)-4-amino-3,4-dioxo-1-((S)-2-oxopyrrolidin-3-yl)butan-2-yl)amino)-4-methyl-1-oxopentan-2-yl)carbamate] and `CC(C)C[C@H](NC(=O)OCCCc1ccccc1)C(=O)N[C@@H](C[C@@H]1CCNC1=O)C(=O)C(N)=O` [Compound C256] cannot be ordered by IC50: > 200 µM for the first, > 200 µM for the second.

First: O=C(N[C@@H](CC1CCCCC1)C(=O)N[C@@H](C[C@@H]1CCNC1=O)C(=O)C(=O)NC1CC1)OC(Cc1cccc(Cl)c1)c1cccc(Cl)c1 (stereo partly drawn) [Compound C241, 1,2-Bis(3-chlorophenyl)ethyl ((S)-3-cyclohexyl-1-(((S)-4-(cyclopropylamino)-3,4-dioxo-1-((S)-2-oxopyrrolidin-3-yl)butan-2-yl)amino)-1-oxopropan-2-yl)carbamate]
Second: CC(C)C[C@H](NC(=O)OC(Cc1cccc(Cl)c1)c1cccc(Cl)c1)C(=O)N[C@@H](C[C@@H]1CCNC1=O)C(=O)C(=O)NC1CC1 (stereo partly drawn) [Compound C242, 1,2-Bis(3-chlorophenyl)ethyl ((S)-1-(((S)-4-(cyclopropylamino)-3,4-dioxo-1-((S)-2-oxopyrrolidin-3-yl)butan-2-yl)amino)-4-methyl-1-oxopentan-2-yl)carbamate]
The IC50 of the first is 2.5-fold higher: 85.7 µM for the first, 33.9 µM for the second. The second is the more potent here.

Compared with `CC(C)C[C@H](NC(=O)OC(Cc1cccc(Cl)c1)c1ccccc1)C(=O)N[C@@H](C[C@@H]1CCNC1=O)C(=O)C(=O)N1CCCCC1` (stereo partly drawn) [Compound C243, 2-(3-Chlorophenyl)-1-phenylethyl ((S)-1-(((S)-3,4-dioxo-1-((S)-2-oxopyrrolidin-3-yl)-4-(piperidin-1-yl)butan-2-yl)amino)-4-methyl-1-oxopentan-2-yl) carbamate], `CC(C)C[C@H](NC(=O)OC(c1ccccc1)C(C)(C)c1cccc(Cl)c1)C(=O)N[C@@H](C[C@@H]1CCNC1=O)C(=O)C(=O)N1CCCCC1` (stereo partly shown) [Compound C270] is lower in IC50: > 200 µM for the first, 106 µM for the second. The second is the more potent here.

Compared with `CC1(C)CC(CC(NC(=O)[C@H](CC2CCCCC2)NC(=O)OCc2cccc(Cl)c2)C(=O)C(=O)NC2CC2)C(=O)N1` (stereo partly drawn) [Compound C244, 3-Chlorobenzyl ((2S)-3-cyclohexyl-1-((4-(cyclopropylamino)-1-(5,5-dimethyl-2-oxopyrrolidin-3-yl)-3,4-dioxobutan-2-yl)amino)-1-oxopropan-2-yl) carbamate], `CC1(C)CC(CC(NC(=O)[C@H](CC2CCCCC2)NC(=O)OC(c2ccc(Cl)cc2)C(C)(C)c2cccc(Cl)c2)C(=O)C(=O)NC2CC2)C(=O)N1` (stereo partly shown) [Compound C245] is higher in IC50: 97.6 µM for the first, > 200 µM for the second.

First: CC(C)C[C@H](NC(=O)OC(c1ccc(F)cc1)C(C)(C)c1cccc(Cl)c1)C(=O)N[C@@H](C[C@@H]1CCNC1=O)C(=O)C(=O)NC1CC1 (stereo partly shown) [Compound C247]
Second: CC(C)C[C@H](NC(=O)OC(c1ccccc1)C(F)(F)c1cccc(Cl)c1)C(=O)N[C@@H](C[C@@H]1CCNC1=O)C(=O)C(=O)NC1CC1 (stereo partly shown) [Compound C258]
The IC50 of the first is 4.3-fold higher: 183 µM for the first, 42.9 µM for the second. The second is the more potent here.

`CC(C)C[C@H](NC(=O)OC(c1ccccc1)C(C)(C)c1cccc(Cl)c1)C(=O)N[C@@H](C[C@@H]1CCNC1=O)C(=O)C(=O)N1CCN(C)CC1` (stereo partly shown) [Compound C248] and `CC(C)C[C@H](NC(=O)OC(c1ccccc1)C(C)(C)c1cccc(Cl)c1)C(=O)N[C@@H](C[C@@H]1CCNC1=O)C(=O)C(=O)N1CCNCC1` (stereo partly shown) [Compound C274] cannot be ordered by IC50: > 200 µM for the first, > 200 µM for the second.

Compared with `CC(C)C[C@H](NC(=O)OC(Cc1cccc(Cl)c1)c1ccccc1)C(=O)N[C@@H](C[C@@H]1CCNC1=O)C(=O)NS(=O)(=O)C1CC1` (stereo partly shown) [Compound C249], `CC(C)C[C@H](NC(=O)OC(c1ccccc1)C(F)(F)c1cccc(Cl)c1)C(=O)N[C@@H](C[C@@H]1CCNC1=O)C(=O)C(N)=O` (stereo partly shown) [Compound C251] is lower in IC50: > 200 µM for the first, 58.2 µM for the second.

`O=C[C@H](C[C@@H]1CCNC1=O)NC(=O)[C@H](CC1CCCCC1)NC(=O)OC(c1cccc(Cl)c1)C1(c2cccc(Cl)c2)CC1` (stereo partly drawn) [Compound C250, (3-Chlorophenyl)(1-(3-chlorophenyl)cyclopropyl)methyl ((S)-3-cyclohexyl-1-oxo-1-(((S)-1-oxo-3-((S)-2-oxopyrrolidin-3-yl)propan-2-yl)amino)propan-2-yl)carbamate] and `O=C[C@H](C[C@@H]1CCNC1=O)NC(=O)[C@H](CC1CCCCC1)NC(=O)OC(Cc1cccc(Cl)c1)c1cccc(Cl)c1` (stereo partly drawn) [Compound C272, 1,2-Bis(3-chlorophenyl)ethyl ((S)-3-cyclohexyl-1-oxo-1-(((S)-1-oxo-3-((S)-2-oxopyrrolidin-3-yl)propan-2-yl)amino)propan-2-yl)carbamate] are within 1.5-fold of each other in IC50: 11.7 µM for the first, 16.4 µM for the second.

Going from `CC(C)C[C@H](NC(=O)OC(c1ccccc1)C(F)(F)c1cccc(Cl)c1)C(=O)N[C@H](C=O)C[C@@H]1CCNC1=O` (stereo partly shown) [Compound C252] to `CC(C)C[C@H](NC(=O)O[C@@H](c1ccccc1)C(C)(C)c1cccc(Cl)c1)C(=O)N[C@H](C=O)C[C@@H]1CCNC1=O` [Compound C275], the IC50 rises from 0.973 µM to 1.5 µM (1.5-fold). The first is the more potent here.

`CC(C)(c1cccc(Cl)c1)C(OC(=O)N[C@@H](Cc1ccccc1)C(=O)N[C@@H](C[C@@H]1CCNC1=O)C(=O)C(N)=O)c1ccccc1` (stereo partly shown) [Compound C254] and `CC(C)(c1cccc(Cl)c1)C(OC(=O)N[C@@H](Cc1ccccc1)C(=O)N[C@H](C=O)C[C@@H]1CCNC1=O)c1ccccc1` (stereo partly shown) [Compound C257] cannot be ordered by IC50: > 200 µM for the first, > 200 µM for the second.

`NC(=O)C(=O)[C@H](C[C@@H]1CCNC1=O)NC(=O)[C@H](Cc1ccccc1)NC(=O)OC(CCc1ccccc1)c1ccccc1` (stereo partly shown) [Compound C255] and `CC(C)C[C@H](NC(=O)OC(Cc1ccccc1)c1ccccc1)C(=O)N[C@@H](C[C@@H]1CCNC1=O)C(=O)C(=O)N1CCN(C(=O)OC(C)(C)C)CC1` (stereo partly shown) [Compound C280] cannot be ordered by IC50: > 200 µM for the first, > 200 µM for the second.

Compared with `CC(C)C[C@H](NC(=O)OC(c1ccccc1)C(C)(C)c1cccc(Cl)c1)C(=O)N[C@@H](C[C@@H]1CCNC1=O)C(=O)C(=O)NCCN(C)C` (stereo partly shown) [Compound C260], `CC(C)C[C@H](NC(=O)O[C@H](c1ccccc1)C(C)(C)c1cccc(Cl)c1)C(=O)N[C@H](C=O)C[C@@H]1CCNC1=O` [Compound C276] is lower in IC50: > 200 µM for the first, 3.5 µM for the second. The second is the more potent here.

First: CC(C)C[C@H](NC(=O)OC(c1ccccc1)C(C)(C)c1cccc(Cl)c1)C(=O)N[C@@H](C[C@@H]1CCNC1=O)C(=O)C(=O)N1CCN(C(=O)OC(C)(C)C)CC1 (stereo partly shown) [Compound C261]
Second: CC(C)(c1cccc(Cl)c1)C(OC(=O)N[C@@H](CC1CCCCC1)C(=O)N[C@@H](C[C@@H]1CCNC1=O)C(=O)CO)c1ccccc1 (stereo partly shown) [Compound C273]
The IC50 of the first is lower: 193 µM for the first, > 200 µM for the second. The first is the more potent here.

First: O=C[C@H](C[C@@H]1CCNC1=O)NC(=O)[C@H](CC1CCCCC1)NC(=O)O[C@@H]1CCC[C@H]1Cc1cccc(Cl)c1 [Compound C262]
Second: O=C(N[C@@H](CC1CCCCC1)C(=O)N[C@@H](C[C@@H]1CCNC1=O)C(=O)C(=O)NC1CC1)O[C@H]1CCC[C@@H]1Cc1cccc(Cl)c1 [Compound C264]
The IC50 of the first is 4-fold lower: 3.2 µM for the first, 12.7 µM for the second. The first is the more potent here.

First: O=C(N[C@@H](CC1CCCCC1)C(=O)N[C@@H](C[C@@H]1CCNC1=O)C(=O)C(=O)NC1CC1)O[C@@H]1CCC[C@@H]1Cc1cccc(Cl)c1 [Compound C265]
Second: CC1(C)CC(CC(NC(=O)[C@H](CC2CCCCC2)NC(=O)OC(c2cccc(Cl)c2)C(C)(C)c2cccc(Cl)c2)C(=O)C(=O)NC2CC2)C(=O)N1 (stereo partly shown) [Compound C281]
The IC50 of the first is lower: 10.4 µM for the first, > 200 µM for the second. The first is the more potent here.

`CC(C)C[C@H](NC(=O)OC(c1cccc(Cl)c1)C(F)(F)c1cccc(Cl)c1)C(=O)N[C@H](C=O)C[C@@H]1CCNC1=O` (stereo partly shown) [Compound C266] and `CC(C)C[C@H](NC(=O)O[C@@H](c1cccc(F)c1)C(C)(C)c1cccc(Cl)c1)C(=O)N[C@H](C=O)C[C@@H]1CCNC1=O` [Compound C268] are within 1.5-fold of each other in IC50: 0.796 µM for the first, 0.549 µM for the second.

Going from `CCCCC[C@H](NC(=O)OC(c1ccccc1)C(C)(C)c1cccc(Cl)c1)C(=O)N[C@H](C=O)C[C@@H]1CCNC1=O` (stereo partly shown) [Compound C267] to `CC(C)C[C@H](NC(=O)O[C@H](c1cccc(F)c1)C(C)(C)c1cccc(Cl)c1)C(=O)N[C@H](C=O)C[C@@H]1CCNC1=O` [Compound C269], the IC50 falls from 7.5 µM to 2.2 µM (3.4-fold). The second is the more potent here.

Going from `CCOCCNC(=O)C(=O)[C@H](C[C@@H]1CCNC1=O)NC(=O)[C@H](CC1CCCCC1)NC(=O)OC(c1ccccc1)C(C)(C)c1cccc(Cl)c1` (stereo partly shown) [Compound C271] to `CC(C)C[C@H](NC(=O)OC(c1ccccc1)C1(c2cccc(Cl)c2)CCCC1)C(=O)N[C@H](C=O)C[C@@H]1CCNC1=O` (stereo partly shown) [Compound C278], the IC50 falls from > 200 µM to 3.5 µM.

`CC(C)C[C@H](NC(=O)OC(c1ccccc1)C1(c2cccc(Cl)c2)CCC1)C(=O)N[C@H](C=O)C[C@@H]1CCNC1=O` (stereo partly shown) [Compound C277] showed an IC50 of 33.4 µM.
